# The supplement of paper PMC12067093, “Discovery and optimisation of a covalent ligand for TRIM25 and its application to targeted protein ubiquitination” (Chemical Science, 2025)
# Targets with the largest changes are over-represented here; the source holds about 21,000 in all.
# Compound: CC1Cc2ccccc2N1C(=O)C1CCCN(C1)C(=O)CCl (mixture of isomers) [TRIM25 ligand 11 (diastereomer mixture)]
# Assay: probe-labelled cysteine peptide fold change vs DMSO (competition) (log2 fold change); higher = less target engagement (more negative = stronger competition)
# Settings: 10 µM; THP-1; incubation time: 4 h
# 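Further: competitive chemoproteomic profiling in live THP-1 cells with an iodoacetamide desthiobiotin (IA-DTB) probe, comparing probe-labelled peptide intensities in compound-treated cells against DMSO-treated controls.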
# Chain of UniProt Q96SN8 (Q96SN8 whole entry, looked up): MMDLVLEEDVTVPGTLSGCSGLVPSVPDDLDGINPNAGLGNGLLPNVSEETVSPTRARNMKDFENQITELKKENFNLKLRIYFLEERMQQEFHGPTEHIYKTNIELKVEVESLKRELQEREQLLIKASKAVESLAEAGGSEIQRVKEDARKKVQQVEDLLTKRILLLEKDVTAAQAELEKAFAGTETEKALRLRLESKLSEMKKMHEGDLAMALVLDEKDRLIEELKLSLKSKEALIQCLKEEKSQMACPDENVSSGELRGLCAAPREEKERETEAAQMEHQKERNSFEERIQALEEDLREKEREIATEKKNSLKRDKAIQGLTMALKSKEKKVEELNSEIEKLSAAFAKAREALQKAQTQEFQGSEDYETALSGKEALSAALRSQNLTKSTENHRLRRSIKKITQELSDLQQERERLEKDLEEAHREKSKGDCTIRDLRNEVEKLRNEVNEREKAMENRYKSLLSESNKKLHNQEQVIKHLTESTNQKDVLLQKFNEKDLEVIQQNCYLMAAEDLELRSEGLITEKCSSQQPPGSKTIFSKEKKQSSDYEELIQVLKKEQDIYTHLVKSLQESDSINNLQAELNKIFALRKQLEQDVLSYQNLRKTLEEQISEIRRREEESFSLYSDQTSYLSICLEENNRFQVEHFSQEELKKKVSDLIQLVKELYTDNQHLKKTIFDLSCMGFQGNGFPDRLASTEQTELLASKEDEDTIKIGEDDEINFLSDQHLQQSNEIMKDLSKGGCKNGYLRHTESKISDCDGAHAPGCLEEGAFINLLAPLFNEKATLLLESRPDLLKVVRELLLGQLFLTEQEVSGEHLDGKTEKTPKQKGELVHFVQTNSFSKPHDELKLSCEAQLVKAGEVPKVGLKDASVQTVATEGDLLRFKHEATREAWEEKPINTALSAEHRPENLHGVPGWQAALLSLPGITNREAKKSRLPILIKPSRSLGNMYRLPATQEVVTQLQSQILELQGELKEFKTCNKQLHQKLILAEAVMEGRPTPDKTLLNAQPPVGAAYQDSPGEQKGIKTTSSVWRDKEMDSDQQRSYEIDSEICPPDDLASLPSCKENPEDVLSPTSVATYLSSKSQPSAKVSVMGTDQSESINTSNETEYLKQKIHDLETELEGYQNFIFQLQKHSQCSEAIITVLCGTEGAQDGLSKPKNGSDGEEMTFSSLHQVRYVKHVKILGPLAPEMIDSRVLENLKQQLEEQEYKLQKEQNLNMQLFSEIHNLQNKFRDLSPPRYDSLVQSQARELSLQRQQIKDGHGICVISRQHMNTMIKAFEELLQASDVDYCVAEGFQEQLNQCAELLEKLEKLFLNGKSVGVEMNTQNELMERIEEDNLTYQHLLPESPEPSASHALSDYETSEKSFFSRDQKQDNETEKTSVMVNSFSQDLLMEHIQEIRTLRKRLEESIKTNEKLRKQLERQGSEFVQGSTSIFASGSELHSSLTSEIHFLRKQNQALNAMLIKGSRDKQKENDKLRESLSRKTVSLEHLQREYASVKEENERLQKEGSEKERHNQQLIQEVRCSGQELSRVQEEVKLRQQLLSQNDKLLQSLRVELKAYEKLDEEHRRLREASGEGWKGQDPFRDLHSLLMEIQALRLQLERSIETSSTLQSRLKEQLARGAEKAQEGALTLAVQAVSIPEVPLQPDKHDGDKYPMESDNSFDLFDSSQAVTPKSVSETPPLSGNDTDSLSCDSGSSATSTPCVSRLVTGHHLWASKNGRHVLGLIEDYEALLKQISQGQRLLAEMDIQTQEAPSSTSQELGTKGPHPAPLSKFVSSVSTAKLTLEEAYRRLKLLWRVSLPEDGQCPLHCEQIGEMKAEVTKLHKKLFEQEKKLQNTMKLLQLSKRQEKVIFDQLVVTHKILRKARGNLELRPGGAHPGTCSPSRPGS
# Chain of UniProt P62633 (P62633 whole entry, looked up): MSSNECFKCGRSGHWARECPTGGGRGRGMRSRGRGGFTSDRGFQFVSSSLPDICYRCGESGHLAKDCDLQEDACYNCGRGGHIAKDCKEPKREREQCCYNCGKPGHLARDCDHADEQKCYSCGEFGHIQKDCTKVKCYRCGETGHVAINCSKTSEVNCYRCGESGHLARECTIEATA
# Chain of UniProt Q7Z3J2 (Q7Z3J2 whole entry, looked up): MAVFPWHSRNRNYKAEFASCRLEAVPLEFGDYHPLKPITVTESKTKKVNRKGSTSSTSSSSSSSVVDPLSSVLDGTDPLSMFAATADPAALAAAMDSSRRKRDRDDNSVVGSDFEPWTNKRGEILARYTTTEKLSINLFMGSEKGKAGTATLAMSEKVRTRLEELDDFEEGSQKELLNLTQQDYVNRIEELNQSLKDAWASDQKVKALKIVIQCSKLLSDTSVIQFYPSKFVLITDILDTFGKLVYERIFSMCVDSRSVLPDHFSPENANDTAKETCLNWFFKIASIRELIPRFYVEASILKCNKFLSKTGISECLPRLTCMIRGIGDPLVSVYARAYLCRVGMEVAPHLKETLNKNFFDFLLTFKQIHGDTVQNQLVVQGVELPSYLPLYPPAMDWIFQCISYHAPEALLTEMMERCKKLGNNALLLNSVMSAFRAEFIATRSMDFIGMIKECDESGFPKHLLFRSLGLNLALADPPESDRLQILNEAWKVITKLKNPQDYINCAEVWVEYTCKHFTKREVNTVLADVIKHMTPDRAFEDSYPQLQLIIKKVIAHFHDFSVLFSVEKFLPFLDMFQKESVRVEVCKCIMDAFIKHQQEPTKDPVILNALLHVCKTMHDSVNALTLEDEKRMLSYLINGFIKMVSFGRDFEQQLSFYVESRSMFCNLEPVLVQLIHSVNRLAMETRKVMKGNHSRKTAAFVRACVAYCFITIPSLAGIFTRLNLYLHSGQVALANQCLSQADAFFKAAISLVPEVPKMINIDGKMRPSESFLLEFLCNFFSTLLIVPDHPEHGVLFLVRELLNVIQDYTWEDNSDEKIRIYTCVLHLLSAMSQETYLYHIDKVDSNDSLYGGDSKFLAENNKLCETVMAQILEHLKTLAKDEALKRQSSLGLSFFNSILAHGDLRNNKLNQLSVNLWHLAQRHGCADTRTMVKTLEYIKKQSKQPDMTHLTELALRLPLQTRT
# Chain of UniProt Q86VP6 (Q86VP6 whole entry, looked up): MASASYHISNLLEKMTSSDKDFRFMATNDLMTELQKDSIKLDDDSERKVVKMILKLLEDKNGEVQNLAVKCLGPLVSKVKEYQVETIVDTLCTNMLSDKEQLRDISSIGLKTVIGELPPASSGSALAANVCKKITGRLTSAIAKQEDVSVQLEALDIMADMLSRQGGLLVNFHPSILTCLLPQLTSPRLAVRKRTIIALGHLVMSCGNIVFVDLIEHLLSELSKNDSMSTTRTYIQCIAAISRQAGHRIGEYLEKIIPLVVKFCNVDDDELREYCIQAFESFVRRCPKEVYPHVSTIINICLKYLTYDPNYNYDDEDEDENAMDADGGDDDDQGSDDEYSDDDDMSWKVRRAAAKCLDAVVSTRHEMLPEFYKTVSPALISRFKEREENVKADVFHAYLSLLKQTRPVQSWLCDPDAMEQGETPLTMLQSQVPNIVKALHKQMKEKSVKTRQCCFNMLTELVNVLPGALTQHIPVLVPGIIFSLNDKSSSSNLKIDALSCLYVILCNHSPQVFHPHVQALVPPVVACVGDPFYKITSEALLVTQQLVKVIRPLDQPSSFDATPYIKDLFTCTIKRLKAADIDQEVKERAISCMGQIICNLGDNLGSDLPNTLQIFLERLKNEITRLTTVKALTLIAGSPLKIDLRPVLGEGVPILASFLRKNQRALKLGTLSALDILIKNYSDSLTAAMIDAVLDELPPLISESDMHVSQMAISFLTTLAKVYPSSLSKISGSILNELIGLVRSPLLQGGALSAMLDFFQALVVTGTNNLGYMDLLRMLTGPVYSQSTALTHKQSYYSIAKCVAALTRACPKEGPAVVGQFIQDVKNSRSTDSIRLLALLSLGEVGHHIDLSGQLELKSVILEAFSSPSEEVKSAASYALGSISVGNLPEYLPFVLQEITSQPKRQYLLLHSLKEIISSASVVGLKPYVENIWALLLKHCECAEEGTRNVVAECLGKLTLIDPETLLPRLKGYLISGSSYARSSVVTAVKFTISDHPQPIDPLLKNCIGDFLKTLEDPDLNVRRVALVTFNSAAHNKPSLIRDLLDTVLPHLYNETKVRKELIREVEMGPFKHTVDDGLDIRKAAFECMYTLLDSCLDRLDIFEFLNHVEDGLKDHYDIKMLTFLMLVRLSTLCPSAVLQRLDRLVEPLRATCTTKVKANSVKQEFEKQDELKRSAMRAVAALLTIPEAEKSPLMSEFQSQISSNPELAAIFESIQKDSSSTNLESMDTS
# Chain of UniProt P60953 (P60953 whole entry, looked up): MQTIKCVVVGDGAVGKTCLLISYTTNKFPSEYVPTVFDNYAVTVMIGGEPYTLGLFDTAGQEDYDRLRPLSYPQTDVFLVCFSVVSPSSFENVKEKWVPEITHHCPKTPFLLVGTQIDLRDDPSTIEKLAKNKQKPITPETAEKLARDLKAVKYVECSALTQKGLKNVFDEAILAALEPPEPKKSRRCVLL
# Chain of UniProt P27797 (P27797 whole entry, looked up): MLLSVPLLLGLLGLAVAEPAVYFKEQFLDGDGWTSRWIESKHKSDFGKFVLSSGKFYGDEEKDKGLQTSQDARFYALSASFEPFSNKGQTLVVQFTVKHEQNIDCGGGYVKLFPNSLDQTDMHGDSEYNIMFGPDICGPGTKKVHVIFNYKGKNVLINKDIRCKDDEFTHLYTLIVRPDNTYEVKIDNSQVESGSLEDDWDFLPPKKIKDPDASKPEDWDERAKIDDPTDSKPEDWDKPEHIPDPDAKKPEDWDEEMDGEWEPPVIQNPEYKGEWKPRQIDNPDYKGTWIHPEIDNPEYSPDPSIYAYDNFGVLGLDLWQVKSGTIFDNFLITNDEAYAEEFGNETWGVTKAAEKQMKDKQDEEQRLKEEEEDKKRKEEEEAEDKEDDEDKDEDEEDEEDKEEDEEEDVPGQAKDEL
row,Target,probe-labelled cysteine peptide fold change
1,CNBP_P62633_67_DCDLQEDACYNCGR (UniProt P62633),0.697
2,CAND1_Q86VP6_179_QGGLLVNFHPSILTCLLPQLTSPR (UniProt Q86VP6),0.217
3,COG1_Q8WTW3_625_LCQSLGELCPHLK (UniProt Q8WTW3),-0.0646
4,BRIX1_Q8TDN6_107_LFVINEVCEMK (UniProt Q8TDN6),-0.0374
5,CDC20_Q12834_472_CFELDPAR (UniProt Q12834),-0.00368
6,CELF2_O95319_85+86_GCCFVTFYTR (UniProt O95319),-0.141
7,CDC42_P60953_18_TCLLISYTTNK (UniProt P60953),0.436
8,CDK5RAP2_Q96SN8_508_DLEVIQQNCYLMAAEDLELR (UniProt Q96SN8),-0.00816
9,C16orf62_Q7Z3J2_20_AEFASCR (UniProt Q7Z3J2),-0.0595
10,BRCA1_P38398_712_CSNTSELK (UniProt P38398),0.0312
11,CALR_P27797_105_GQTLVVQFTVKHEQNIDCGGGYVK (UniProt P27797),-0.618
12,CNOT6L_Q96LI5_283_HVDGCAIFFK (UniProt Q96LI5),0.0132
13,COPA_P53621_85_CLFTLLGHLDYIR (UniProt P53621),0.107
14,CAP1_Q01518_416_TDGCHAYLSK (UniProt Q01518),0.0498
15,CCT4_P50991_450_TLSGMESYCVR (UniProt P50991),0.000397
16,COG6_Q9Y2V7_234_WAQSECR (UniProt Q9Y2V7),-0.0172
17,CD82_P27701_216_TQSGNHPEDWPVYQEGCMEK (UniProt P27701),0.0676
